Reference: article PMC4336329 (PLoS ONE, 2015)
Out of some 310,000 compounds screened, about 14,000 (4.5%) showed an effect of 50% or more. The effect is printed as a negative number. The list shows a part of the results.

Molecular target: human ether-à-go-go-related gene (hERG) potassium channel (human, UniProt Q12809)
Test: primary screen, population patch clamp on CHO cells stably expressing hERG
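Note: peak tail current of the secondary pulse compared with the same well before compound.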

Sequence of human ether-à-go-go-related gene (hERG) potassium channel (Q12809 whole entry, looked up): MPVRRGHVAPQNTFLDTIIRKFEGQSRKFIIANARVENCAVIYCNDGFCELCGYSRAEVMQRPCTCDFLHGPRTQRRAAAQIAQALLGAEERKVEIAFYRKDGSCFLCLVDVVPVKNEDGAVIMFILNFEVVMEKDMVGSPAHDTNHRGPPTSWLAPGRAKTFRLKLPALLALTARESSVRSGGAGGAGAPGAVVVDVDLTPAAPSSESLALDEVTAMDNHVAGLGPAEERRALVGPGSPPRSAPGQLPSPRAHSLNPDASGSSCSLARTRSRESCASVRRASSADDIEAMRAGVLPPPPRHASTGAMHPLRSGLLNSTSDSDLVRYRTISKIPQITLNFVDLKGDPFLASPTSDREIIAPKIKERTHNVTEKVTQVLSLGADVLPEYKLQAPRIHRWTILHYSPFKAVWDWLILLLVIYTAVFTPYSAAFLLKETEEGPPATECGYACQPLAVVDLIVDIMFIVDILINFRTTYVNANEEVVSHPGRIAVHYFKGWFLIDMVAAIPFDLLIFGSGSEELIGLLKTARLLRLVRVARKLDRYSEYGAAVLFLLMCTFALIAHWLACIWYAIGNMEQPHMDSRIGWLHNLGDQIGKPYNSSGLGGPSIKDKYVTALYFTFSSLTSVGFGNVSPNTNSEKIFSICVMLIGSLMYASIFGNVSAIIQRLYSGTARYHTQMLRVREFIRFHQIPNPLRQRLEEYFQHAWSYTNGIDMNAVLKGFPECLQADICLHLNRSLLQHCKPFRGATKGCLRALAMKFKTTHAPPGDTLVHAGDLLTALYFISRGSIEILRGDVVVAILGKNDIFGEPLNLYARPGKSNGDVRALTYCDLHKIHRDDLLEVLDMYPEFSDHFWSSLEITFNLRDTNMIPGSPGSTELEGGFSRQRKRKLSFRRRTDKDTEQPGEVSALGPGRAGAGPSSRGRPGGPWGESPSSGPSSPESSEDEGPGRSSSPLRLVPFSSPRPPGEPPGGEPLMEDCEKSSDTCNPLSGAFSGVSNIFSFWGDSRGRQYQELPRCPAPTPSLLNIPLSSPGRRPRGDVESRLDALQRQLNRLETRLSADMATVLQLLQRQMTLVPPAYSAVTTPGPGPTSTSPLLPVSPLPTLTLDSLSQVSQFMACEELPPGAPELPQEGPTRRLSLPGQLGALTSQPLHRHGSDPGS

Row | SMILES | hERG current change (%, negative = inhibition) at 10uM
1 | O=c1oc2ccccc2c2oc3cc(O)c(O)cc3c12 | -28.8%
2 | Cc1csc2ncc(C(=O)N3c4ccccc4CC3C)c(=O)n12 (stereo not drawn) | 11.2%
3 | Cc1ccc2oc(=O)c(/C=C(\O)c3cccs3)nc2c1 | 9.84%
4 | NC(=O)CNC(=O)c1cccc(Cl)c1 | 18.6%
5 | Cc1nc2cc(-c3ccc(Cl)cc3)nn2c(C)c1CCC(=O)NCc1ccco1 | -41.9%
6 | O=C(Nc1ccc(-c2csc(Nc3ccccc3)n2)cc1)c1cc([N+](=O)[O-])cc(C(F)(F)F)c1 | -8.78%
7 | COc1ccc(C(=O)CCN2CCC(C)CC2)cc1.Cl | -30%
8 | COc1cccc(C2C(C#N)=C(N)OC3=C2C(=O)CC(c2ccco2)C3)c1OCc1ccc(F)cc1 (stereo not drawn) | 4.07%
9 | Cc1ccc(S(=O)(=O)Cc2ccc(C(=O)O)o2)cc1 | -6.05%
10 | Cc1cc(C)c2c(-n3cccc3)nn(C)c2n1 | 8.9%
11 | CC1CN(C(=O)COC(=O)c2c(Cl)cccc2Cl)CC(C)O1 (stereo not drawn) | 6.73%
12 | COc1ccc(OC)c2sc(N3CCN(c4ccccc4)CC3)nc12 | 7.88%
13 | Cc1ccc(C(=O)NC(=S)NCc2cccnc2)cc1 | -7.52%
14 | CC(C)(C)N1CC(c2nc3ccccc3n2Cc2ccc(F)cc2)CC1=O (stereo not drawn) | -36.7%
15 | COc1ccccc1C(O)(c1ccccc1)C(CN1CCOCC1)c1ccccc1.Cl (stereo not drawn) | -1.97%
16 | Cc1cc(/C=C(\C#N)C(=O)OCC(=O)Nc2ccc(OC(F)F)cc2)c(C)n1CC(C)C | -1.08%
17 | O=C(CSCC(=O)OCn1nnc2ccccc2c1=O)Nc1ccc(Cl)cc1 | -3.73%
18 | COc1ccc(CNC(=O)c2cc(=O)c3cc(C)c(C)cc3o2)cc1 | 19.3%
19 | COc1ccc(C2CC(=O)c3c([nH]c(C(=O)OC(C)C)c3C)C2)cc1OC (stereo not drawn) | -3.77%
20 | Clc1ccccc1-c1nnc(-c2cccnc2)o1 | 1.46%
21 | O=C(CN1C(=O)C2CCCCN2C(=O)c2ccccc21)N1CCCc2ccccc21 (stereo not drawn) | 6.8%

Row | SMILES | hERG current change (%, negative = inhibition) at 10uM
22 | CCc1nc(Nc2ccc(OC)c(OC)c2)c2nnn(Cc3ccccc3Cl)c2n1 | 8.6%
23 | CS(=O)(=O)N1N=C(c2ccc(Br)cc2)CC1c1cccs1 (stereo not drawn) | 18.9%
24 | Cn1c(CBr)c(C(=O)c2ccc([N+](=O)[O-])cc2)c(=O)n(C)c1=O | -11%
25 | CC(NC(=O)CCN1C(=O)c2ccccc2S1(=O)=O)c1ccccc1 (stereo not drawn) | 7.92%
26 | O=C(N/N=C/c1cccnc1)c1ccc(Cn2cc([N+](=O)[O-])cn2)o1 | -8.7%
27 | CCN(CC)CCCNC(=O)c1nn2c(C(F)(F)F)cc(-c3ccccc3)nc2c1Cl | -29.3%
28 | CC(C)(C#N)Nn1cnnc1 | 17.1%
29 | O=C(CNC(=O)c1ccc(Br)o1)NNC(=O)COc1ccccc1Cl | -3.14%
30 | N/C(=N\OC(=O)COc1ccc(Br)cc1)c1cccc([N+](=O)[O-])c1 | -15.4%
31 | CCO[C@H]1OC(C(=O)NCc2ccccc2)=C[C@@H](c2ccccc2)[C@@H]1CCCO | -19.6%
32 | Cc1ccc(-c2csc3nc(SCC(N)=O)n(Cc4ccccc4)c(=O)c23)cc1 | -22.7%
33 | Cc1ccc(/C=N/NC(=O)CSc2nnc(-c3ccccc3)n2-c2ccc(Cl)cc2)o1 | -21.8%
34 | Cc1cc(C(=O)COC(=O)c2ccc(O)cc2)c(C)n1CCc1ccc(F)cc1 | -14%
35 | O=C(c1nc[nH]c1C(=O)N1CCc2ccccc2C1)N1CCc2ccccc2C1 | 16%
36 | NC1=NS(=O)(=O)NC1c1ccc(Cl)cc1 (stereo not drawn) | 7.49%
37 | N#Cc1ccc(Sc2nc3ccccc3[nH]2)cc1C#N | -22.2%
38 | O=C(NCc1ccccn1)C1CCN(S(=O)(=O)N2CCCC2)CC1 | -8.11%
39 | CCOC(=O)c1cccc(NC(=S)N2CCN(c3ncc4c(=O)c(C(=O)O)cn(CC)c4n3)CC2)c1 | 21.7%
40 | CCCn1nnc(NC(=O)c2ccco2)n1 | -0.845%
41 | O=C(COC(=O)C1CCCN1C(=O)C12CC3CC(CC(C3)C1)C2)c1ccc(Br)cc1 (stereo not drawn) | 18.2%
42 | Cc1cccc(N(C)C(=O)c2cnn(-c3ccccc3)c2C)c1 | 1.18%

Row | SMILES | hERG current change (%, negative = inhibition) at 10uM
43 | O=C(Nc1ccc(N2CCN(C(=O)c3ccco3)CC2)cc1)C(c1ccccc1)c1ccccc1 | -11%
44 | COc1cc(C(=O)Nc2cccc(C)c2C)ccc1OCC(=O)N1CCOCC1 | 2.28%
45 | Cc1cccc(OCCn2c(NC(=O)c3ccco3)nc3ccccc32)c1 | 12.5%
46 | O=C(NNC1=NC2(CCCC2)Cc2ccccc21)c1cccnc1 | 38%
47 | COCCSc1nnc(NC(=O)C2CCN(C(=O)c3ccco3)CC2)s1 | 4.57%
48 | O=C(O)C/C(=C\c1cccc(NC(=O)c2ccccc2Cl)c1)c1nc2ccccc2s1 | -6.18%
49 | O=S(=O)(Nc1ccccc1)c1ccc(-c2cnc(C3CC3)o2)cc1 | 6.13%
50 | O=C(CSCc1ccccc1)NCc1ccc2c(c1)OCO2 | -20.3%
51 | CN(C(=O)COC(=O)c1cc(S(=O)(=O)N2CCOCC2)ccc1F)C1CCS(=O)(=O)C1 (stereo not drawn) | 11.7%
52 | CC1CN(S(=O)(=O)c2cc(C(=O)N(CCc3ccccc3)Cc3ccccc3)ccc2Cl)CC(C)O1 (stereo not drawn) | -2.24%
53 | Cl.O=C1c2cccc3cccc(c23)C(=O)N1CCN1CCN(CC(O)COCc2ccc(Cl)cc2)CC1 (stereo not drawn) | -72.5%
54 | CS(=O)(=O)Oc1ccc2c(c1)O/C(=C\c1cccc([N+](=O)[O-])c1)C2=O | 1.59%
55 | Cc1ccc(S(=O)(=O)Nc2ccccn2)cc1[N+](=O)[O-] | 15%
56 | COc1ccc(S(=O)(=O)N2CCN(C(=O)NCc3ccc(OC)c(OC)c3)CC2)cc1 | 9.37%
57 | COc1ccc(-n2c(O)c(/C=N/Nc3nc(C)cc(C)n3)c3ccccc3c2=O)cc1OC | 14.6%
58 | O=C1NC(NS(=O)(=O)c2ccc(Cl)cc2)(C(F)(F)F)C(=O)N1c1ccccc1 (stereo not drawn) | 3.95%
59 | Fc1ccc(CSc2nnc3ccc(-c4ccncc4)nn23)cc1 | -70.1%
60 | O=C(NCCCn1ccnc1)c1ccc(Cl)c(S(=O)(=O)N2CCOCC2)c1 | -4.59%
61 | Cc1ncc([N+](=O)[O-])n1S(=O)(=O)c1cc(Cl)ccc1Cl | 18.3%
62 | CC(Sc1nc2sccc2c(=O)n1-c1ccccc1)C(N)=O (stereo not drawn) | 6.66%
63 | O=c1[nH]c(C2CCN(S(=O)(=O)c3ccccc3)CC2)nc2c1nnn2Cc1c(F)cccc1Cl | -2.84%

Row | SMILES | hERG current change (%, negative = inhibition) at 10uM
64 | COCc1[nH]nc2c1C(c1sccc1C)C(C#N)=C(N)O2 (stereo not drawn) | -3.66%
65 | FC(F)(F)c1cc(C(F)(F)F)c2ccc(Oc3ccccc3)nc2n1 | -4.18%
66 | COC(=O)c1sc(SC)c(S(=O)(=O)C(C)C)c1N/N=C(\C#N)S(=O)(=O)c1ccccn1 | 4.87%
67 | Cc1cc(C)c2c(N)c(C(=O)Nc3ccc(F)cc3)sc2n1 | 13.2%
68 | COc1ccccc1NC(=O)C1C2C=CC(O2)C1C(=O)O (stereo not drawn) | -0.963%
69 | CCOC(=O)C1=C(O)C(=O)N(Cc2ccccc2)C1 | 20.6%
70 | CCN(CC)S(=O)(=O)c1ccc(C(=O)Nc2nnc(NC(=S)Nc3ccccc3)s2)cc1 | 9.51%
71 | COc1ccc(C(=O)NCC(=O)N2CCC3(CC2)NCCc2[nH]cnc23)cc1 | 11.4%
72 | CCc1cc(CNC(=O)CC2C(=O)NCCN2Cc2cccc(OC)c2)on1 (stereo not drawn) | -11.4%
73 | CCC(c1nc2ccccc2c(=O)n1CCCn1ccnc1)N1C(=O)c2ccccc2C1=O (stereo not drawn) | -38.8%
74 | CC(=O)N(Cc1ccccc1)c1nc(-c2ccccc2)cs1 | 6.74%
75 | CCOc1ccc(S(=O)(=O)N(CC(=O)NC2CCCC2)c2ccc(F)cc2)cc1 | 10.8%
76 | Fc1ccc(-c2nnc(NC3=NCCCCC3)o2)cc1 | -15.1%
77 | COc1ccccc1N1CCN(C2CCCN(C(=O)CCc3c(C)noc3C)C2)CC1 (stereo not drawn) | -7.57%
78 | c1cncc(-c2nc(NCc3ccco3)c3ccccc3n2)c1 | -5.1%
79 | CCC(CC)C(=O)NCCc1cc2ccc(OC)cc2[nH]c1=O | -3.48%
80 | CN(C)CCCNC(NC(=O)/C=C/c1ccccc1)C(Cl)(Cl)Cl (stereo not drawn) | 1.11%
81 | O=C(c1ccc(N2CCN(C(=O)c3ccc(F)cc3F)CC2)cc1)c1cccc(F)c1 | -24.1%
82 | CCO[C@H]1OC(C(=O)NCc2ccccc2)=C[C@@H](C(C)(C)C)[C@@H]1CCCO | 0.338%
83 | CCOc1ccc(/C=C2/C(=N)N3OC(C)=CC3=NC2=O)cc1OC | 14.8%
84 | C#C[C@]1(O)CC[C@H]2[C@@H]3CCc4cc(OC)ccc4[C@H]3CC[C@@]21C | 24.9%
